# In PubChem BioAssay AID2147 (National Center for Advancing Translational Sciences (NCATS), 2009):
# About 3,600 (1.6%) of roughly 230,000 compounds were called active. Inconclusive means that the source gave no clear call. Such entries were picked first, then a sample of the others. Calls follow the shape of the dose curve; as a rule, active = well fitted inhibition curve with a large enough effect (not every such curve was filed as active); inconclusive = small, poorly fitted or top-dose-only effect, or another doubt; inactive = no such curve, though single readings can be large or run the other way. Potencies of inconclusive entries are doubtful fits and often do not repeat.
# Biological target: Lysine-specific demethylase 4E (Homo sapiens) (UniProt B2RXH2)
# Sequence of UniProt B2RXH2 (B2RXH2 whole entry, looked up, the tested form may be a part): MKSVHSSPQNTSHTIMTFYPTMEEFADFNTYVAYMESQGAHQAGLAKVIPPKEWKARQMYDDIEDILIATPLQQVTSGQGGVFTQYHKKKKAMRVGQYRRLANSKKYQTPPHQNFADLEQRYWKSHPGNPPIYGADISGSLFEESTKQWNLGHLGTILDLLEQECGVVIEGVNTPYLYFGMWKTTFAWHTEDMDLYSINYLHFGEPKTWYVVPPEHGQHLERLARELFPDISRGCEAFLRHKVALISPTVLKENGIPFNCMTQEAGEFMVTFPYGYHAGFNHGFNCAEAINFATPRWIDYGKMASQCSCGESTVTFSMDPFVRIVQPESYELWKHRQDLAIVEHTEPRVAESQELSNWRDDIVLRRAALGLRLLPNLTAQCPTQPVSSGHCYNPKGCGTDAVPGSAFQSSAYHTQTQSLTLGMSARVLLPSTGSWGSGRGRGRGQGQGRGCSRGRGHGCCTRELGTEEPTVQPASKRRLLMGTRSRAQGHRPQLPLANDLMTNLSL
# Assay: qHTS Assay for Inhibitors of Human Jumonji Domain Containing 2E (JMJD2E)
# Settings: JMJD2E catalytic domain, FDH-coupled NADH fluorescence (FDH is formaldehyde dehydrogenase); series mostly up to 57.1 µM
# Excerpt: Assay Provider: Structural Genomics Consortium [SGC] Screening Center PI: Austin, C.P. Screening Center: NIH Chemical Genomics Center [NCGC] The fine interplay among methylation states of several lysine residues on the tails of histone proteins is a major determinant of the transcriptional state of the associated DNA coding regions and is commonly referred to as the histone code. Histone lysine demethylases catalyze the removal of methyl groups from methylated lysine sidechains on histones H3 and H4, thus antagonizing the reactions catalyzed by histone lysine methyltransferases. […] In search for novel inhibitors of JMJD2E demethylase, a member of the largest set of histone demethylases belonging to the Fe(II) and 2-oxoglutarate oxygenase (2OG) superfamily, we performed a quantitative high-throughput screen (Inglese 2006) by using an assay which utilizes a trimethylated peptide substrate corresponding to a fragment of histone H3 (sequence ARKme3STGGK) with detection of the formaldehyde co-product in real time by a formaldehyde dehydrogenase (FDH) coupled reaction. FDH catalyzes oxidation of formaldehyde to formic acid with the concomitant reduction of the non-fluorescent beta-nicotinamide adenine dinucleotide hydrate (NAD+) cofactor to the fluorescent NADH co-product. References: Inglese, J., Auld, D., Jadhav, A., Johnson, R., Simeonov, A., Yasgar, A., Zheng, W. and Austin, C. Proc Natl Acad Sci USA 2006, 103, 11473-11478. N. R. Rose, S. S. Ng, J. Mecinovic, B. M. Lienard, S. H. Bello, Z. Sun, M. A. McDonough, U. Oppermann and C. J. Schofield, J Med Chem, 2008, 51, 7053-7056. Sakurai, M., Rose, N., Schultz, L., Quinn, A., Jadhav, A., Ng, S., Oppermann, U., Schofield, C.J. and Simeonov, A. Mol BioSystems 2009, in press. S. Michael, D. Auld, C. Klumpp, A. Jadhav, W. Zheng, N. Thorne, C. Austin, J. Inglese and A. Simeonov, Assay Drug Dev Technol, 2008, 6, 637-657.
# Reagents and Controls: Ferrous ammonium sulfate, (+)-sodium L-ascorbate, beta-nicotinamide adenine dinucleotide hydrate (NAD+), Tween-20, formaldehyde dehydrogenase from P. putida (FDH), and disodium 2-oxoglutarate were from Sigma (St. Louis, MO). Black solid-bottom 384-well or 1,536-well assay plates were from Greiner Bio-One (Monroe, NC). Enzyme was supplied by Prof. Udo Oppermann, SGC-Oxford. The catalytic domain of human JMJD2E (residues 1-337) was produced as an N-terminally His6-tagged protein in E. coli, and purified by Ni-affinity chromatography and size-exclusion chromatography, and stored in HEPES 50 mM/ NaCl 500 mM pH 7.5, as reported in Rose 2008. The trimethylated histone peptide substrate ARK(me3)STGGK was synthesized and HPLC-purified by the Tufts University Core Facility (Boston, MA). Substrate solution (Sakurai 2009) contained 50 uM ARK(me3)STGGK, 0.00025 U/uL FDH, 50 uM 2-oxoglutarate, 250 uM NAD+, 1 mM ascorbate, and 10 uM ferrous ammonium sulfate. Controls and plate map: Buffer (150 mM HEPES pH 7.5 containing 0.01% Tween-20) in columns 3 and 4 as negative control (no enzyme) and 100 nM JMJD2E final concentration in columns 1,2, and 5-48. Assay Steps: Enzyme and buffer solutions (3 uL) were dispensed into a 1,536-well Greiner black solid-bottom assay plate. The library compounds (23 nL) were transferred using a Kalypsys pintool equipped with 1,536-pin array. The plate was incubated at room temperature (15 min), and then a 1 uL aliquot of substrate solution was added to initiate the reaction. The plate was transferred to ViewLux imager where an initial reading using standard UV optics (Ex 340 nm, Em 450 nm) was obtained. The plate was then removed from the reader, incubated for 30 minutes at room temperature, and returned to the reader for a second fluorescence reading. A fully automated robotic screening system (Kalypsys Inc, San diego, CA) was used to perform the above steps as described previously (Michael 2008). […]
# Also: nearly all actives have a fitted effect of over 50% in size.
# Potency is read from the fitted curve at half-maximal effect; tags tell the direction and shape of the fitted curve.
row,Structure (SMILES),Potency
1,COC(=O)[C@H]1CC2(CC=C(C)C)C(=O)[C@@](CC=C(C)C)(C(=O)C(C(=O)c3ccccc3)=C2OC)C1(C)C (tested in a mixture with another compound),inactive
2,CCN(CC)c1ncnc2c1sc1nc(C)cc(C)c12,"inconclusive: 28.2 µM [inhibitor, single point]"
3,O=C(Cc1cccs1)N/N=C/C=C\c1ccco1,"inconclusive: 25.1 µM [inhibitor, single point]"
4,CSc1cccc(NC(=S)Nc2cc(C)ccc2C)c1,inactive
5,Cc1ccc(-n2c(C)cc(C(=O)COC(=O)c3ccc[nH]c3=O)c2C)cc1C,"inconclusive: 35.5 µM [inhibitor, single point]"
6,Nc1ccc2cn[nH]c2c1,"inconclusive: 25.1 µM [inhibitor, single point]"
7,CCCn1c(N)c(C(=O)CSc2nnc(Cc3ccccc3)o2)c(=O)n(C)c1=O,inactive
8,O=C(OCCN1CCN(c2ncc(C(F)(F)F)cc2Cl)CC1)c1ccc(F)cc1,inactive
9,CC(=O)Nc1ccccc1OCC(=O)NCC(F)(F)F,"inconclusive: 39.8 µM [inhibitor, partial curve, poor fit]"
10,COc1ccc(NC(=O)CSc2ncn(-c3ccccc3)n2)cc1Cl,inactive
11,COc1cc(OC)cc(C(=O)Nc2cc(-c3cn4cccnc4n3)ccc2C)c1,"inconclusive: 25.1 µM [inhibitor, partial curve]"
12,NC(=O)c1ccccc1NC(=S)NC(=O)CCc1ccccc1,inactive
13,COc1cc2cc(C(=O)O)n(C)c2c(OC)c1OC,"inconclusive: 28.2 µM [inhibitor, partial curve]"
14,Cc1cc(C)n2cc(CSc3nc4ccccc4[nH]3)nc2n1,"inconclusive: 28.2 µM [inhibitor, single point]"
15,O=C(COc1ccccc1)Nc1sc2c(c1C(=O)NCc1cccnc1)CCCC2,"inconclusive: 39.8 µM [inhibitor, single point]"
16,CCOC(=O)CN(C(=O)COc1ccc2c(C)cc(=O)oc2c1)c1ccc(OCC)cc1,"inconclusive: 35.5 µM [inhibitor, partial curve]"
17,Cc1ccccc1NC(=O)Cn1c(CCC(=O)O)ccc1-c1cccs1,"inconclusive: 25.1 µM [inhibitor, partial curve]"
18,CSc1nc(Sc2ccccc2)c2ccccc2n1,"inconclusive: 39.8 µM [inhibitor, single point]"

row,Structure (SMILES),Potency
1,CC1(C(=O)N(c2ccccc2)C(C(=O)NC2CCCC2)c2ccccn2)CC(=O)N=C2C=CC=CN21 (stereo unspecified),"inconclusive: 28.2 µM [inhibitor, partial curve]"
2,O=C(CSc1nc(-c2cccs2)cc(C(F)(F)F)n1)NCCCn1ccnc1,"inconclusive: 28.2 µM [inhibitor, single point]"
3,Cc1cc(N2CCCC2)nc2ccccc12,"inconclusive: 31.6 µM [inhibitor, single point]"
4,COc1cccc(CN2CCN(C(=O)CC(C)C)CC2)c1,"inconclusive: 35.5 µM [inhibitor, single point]"
5,Cn1cccc1-c1nc2ccccc2n1C,"inconclusive: 28.2 µM [inhibitor, partial curve]"
6,O=c1c2cc(Cl)ccc2oc2nc3n(c(=O)c12)CCCS3,"inconclusive: 8.91 µM [inhibitor, partial curve]"
7,COc1cccc(/C=N/NC(=O)CO/N=C(\C)c2cccs2)c1OC,"inconclusive: 28.2 µM [inhibitor, single point]"
8,CC(C)C(=O)Nc1nnc(CCN2CCCCC2)s1,inactive
9,CN(/N=C/c1cccnc1)c1cnc2ccccc2n1,"inconclusive: 39.8 µM [inhibitor, single point]"
10,Nc1nc(=S)c2ncn(C3OC(CO)C(O)C3O)c2[nH]1 (stereo unspecified),"inconclusive: 2.82 µM [inhibitor, partial curve, poor fit]"
11,Cc1cccc(C(=O)Nc2ccc(N3CCN(c4ccc(C(F)(F)F)cn4)CC3)nc2)c1,"inconclusive: 2.82 µM [inhibitor, partial curve, poor fit]"
12,COCCN(C(=O)CNC(=O)c1ccco1)C(C(=O)NC1CCCC1)c1cccs1 (stereo unspecified),inactive
13,COc1cc(SC#N)ccc1N=Cc1c(C)[nH]n(-c2ccc(Cl)cc2)c1=O,inactive
14,Cc1ncoc1C(=O)Nc1ncc([N+](=O)[O-])s1,inactive
15,COc1ccc(N=CC2=C(O)CC(c3ccccc3)CC2=O)c(OC)c1 (stereo unspecified),"inconclusive: 39.8 µM [inhibitor, single point]"
16,COCCn1cnc2c(c1=O)c1nc3ccccc3nc1n2/N=C/c1ccc(OC)c(OC)c1,inactive
17,CN(CCO)c1cc(N(C)CCO)c([N+](=O)[O-])cc1[N+](=O)[O-],"inconclusive: 39.8 µM [inhibitor, single point]"
18,COc1ccccc1-n1nnnc1SCc1cc2c(cc1Br)OCO2,inactive
